Measurements reported in the supplement of paper PMC11417369.
Some of the results follow.

Each sequence was assayed on PF3D7_0420300 AP2 domain 1 (GST-tagged) (assay: gcPBM binding intensity (ln(normalized median fluorescence intensity)); higher = stronger DNA binding).
Outline: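 Binding intensity is defined as the maximum Masliner-normalised natural-log median intensity across replicate spots for either probe orientation. It was measured on an Agilent 4 × 180k array of primer-extended double-stranded 36-bp intergenic genomic probes and negative controls, to which GST-tagged P. falciparum DNA-binding domains made in E. coli were applied for 1 h in 1× PBS with 1% milk, 0.2 mg/ml BSA, 0.5% salmon testes DNA and 0.03% Triton X-100. Detection was by Alexa488 anti-GST antibody and scanning at 488 nm.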

Row | Sequence | gcPBM binding intensity (ln)
1 | TGTTTTGTTATTTTTATTTATATAAATAAAGCTATA [GTGCAC_negctrl_site88] | 9.17
2 | ATATATATATTTTATTGTACAAAAAAAAAAAAAAAA [XGTACX_site6803] | 8.74
3 | TTGTTATGCATTGGTTGTACATAAGTATAAGTAATT [XGTACX_site5401] | 9.15
4 | ATAGGATTCTCAAAGTGTACTTGTCTACTGTAGTTT [XGTACX_site4202] | 9.31
5 | TTTGTTTGTAAAATGTTGCACTTTCTTTTGCTGATA | 9.28
6 | CCATTATACACAATATGTACATATATATAATCATTT [XGTACX_site7942] | 9.3
7 | AAAAAAAAAATATGTACACACATATAAAATACATAA [CACACA_site6869] | 9.66
8 | AATAATAAAATAAAAGTGCATTAATTATAATTCTTT [GTGCAC_site9491] | 9.24
9 | TCTTTCTAAATCTTACAAATTACTAAAATATTTATA [CACACA_negctrl_site87] | 8.88
10 | AATTATAATAATAATAGTACATAAGTATATAAATAA [XGTACX_site2400] | 9.39
11 | TTAAATATTTATATTTGTACACAATCAATCATACAC [XGTACX_site5793] | 9.29
12 | GAGGAAAAAAAAAAAAGTACATTATATAAGAAAATT [XGTACX_site2610] | 9.37
13 | TTGGTTTCTTGTTTTTGTACCCATAATTTGTAATAT [XGTACX_site1248] | 9.64
14 | AAAAAAAAAAAAAAAAGTACAAATTTAAAAATGTGT [XGTACX_site112] | 9.15
15 | TCTTTCTATTAAACATGTACTTGTCTAAAGACATAA [XGTACX_site8564] | 8.81
16 | CGAATAAATATATGTAGTACATGTTGTAGATAATTT [XGTACX_site1218] | 9.46
17 | TATATATATTTAAATTGTACATATATTATTCATATG [XGTACX_site911] | 9.15
18 | AATAATATATATTACTGTACTAATATAAGGGACATC [XGTACX_site3744] | 9.53
19 | TTATTTTCTACAAATTGTACATATTTTTTACTACTC [XGTACX_site1394] | 9.33
20 | TTGTCAAAAATTACACACATAAATGAATAAATAAAT [XGTACX_negctrl_site541] | 9.57
21 | ATTTATGAAAAAAATACATGCATGTCCATATAAATT [TGCATGCA_site505] | 9.25
22 | ACATATATATATATTACACACACACTAATAAAATAA [CACACA_site7920] | 10.1

Row | Sequence | gcPBM binding intensity (ln)
23 | TTTCAAGAATTATATAAACACACATACATACACCCA [CACACA_site8592] | 9.65
24 | AAATAATTCATATGTTGTACAGTAATTAAATTTTCT [XGTACX_site6343] | 9.08
25 | ATAATTAATCCAAAATGTACTTACATTTTATATGAA [XGTACX_site8888] | 9.01
26 | ATAAGGATCAGACACAAACACACATATATATATATA [CACACA_site558] | 9.63
27 | TTTTTTTTTCTTTGCACACAGATAACTTGAAATTTG [CACACA_site2185] | 9.39
28 | TTTTATAATTTATCTAAAAAAAAATAAAATAAAATG [TGCATGCA_negctrl_site429] | 8.67
29 | ATAAAATAAAATAAAAGTACATAAATATATATATAT [XGTACX_site6110] | 9.46
30 | AATAAATAAATAAGTACACACATATAAATATAAATA [CACACA_site6271] | 9.66
31 | TTCTACATGAAGTTATAAATTAATATTTTAATTTAT [XGTACX_negctrl_site134] | 8.72
32 | TACTTTATTTTTTATACACACACAATATGTATATAT [CACACA_site9184] | 9.89
33 | GTATTTCTTTAATATACACACACCAAAACAAAAAAA [CACACA_site579] | 9.75
34 | ATATATATATATATATATATAATAAAAGATCATTTA [XGTACX_negctrl_site371] | 9.09
35 | ATAATAAAAAGAAAAAGTACAAATGATTATGTTTGA [XGTACX_site3615] | 9.53
36 | CAAGTATTATATTGCGCATGCAAAGAAGGACACAAA [TGCATGCA_site1024] | 9.41
37 | TTATCTAGTACATACATACACACAACCATGTTATGA [CACACA_site3988] | 9.46
38 | TACATAAATACATACACACACATATAACCAATGTAG [CACACA_site5243] | 10
39 | TTTACATTTTAGGAAGTGCATATAATAAATACTATC | 9.14
40 | CACATATATACACATACACACACACCCATACACCCA [CACACA_site8505] | 10.2
41 | AGAGTACAAGTAAATACACACATATATATGAAAATA [CACACA_site1079] | 9.8
42 | ATCACATTCCACGGTACACACTAAAAGAAAAATCAG [CACACA_site5907] | 9.47
43 | ATTTATATTTAATATACACACATTATTTTTTTATAT [CACACA_site574] | 9.57
44 | TATAATATGACAAGAAGTACATATATTTACATATAT [XGTACX_site1571] | 9.19

Row | Sequence | gcPBM binding intensity (ln)
45 | ATATAATATTTTAGAGTGCACCGATAACAATAAATA [GTGCAC_site9754] | 9.39
46 | TATATGTGGGTTTTTTTTATGTGTTTTTCTTTTTTT [CACACA_negctrl_site936] | 9.85
47 | CATTTCATTAATAAATGTACTTGTGAAGAGAAAAAG [XGTACX_site3115] | 8.98
48 | AAAAGATAAAAAGAAGTGCATAATAGGAACAAATAT [GTGCAC_site9717] | 9.84
49 | ACAAAATTTACAAAATGTACAAAATATACAAAATGT [XGTACX_site3543] | 9.33
50 | TAAGATATAAAAAATGTGCACATTAAAGTATTAATT | 9.29
51 | TGTTATTCTGCATATACACACAAATAACAATTTAAA [CACACA_site6943] | 9.32
52 | TCTTATGATGGAATGTTAAATATTACATTTTGTTTA [TGCATGCA_negctrl_site503] | 9.1
53 | ATGAACATCCAATATACACACATATATATTTATATT [CACACA_site829] | 9.62
54 | TAATGTTTCAAAATTTAATATACTACAAATATTATA [TGCATGCA_negctrl_site336] | 8.88
55 | CAAAAAAAAAAAAAAACACACATTAAATTATAAAGA [CACACA_site2613] | 9.45
56 | TTTATATAGAAACACACACACAAAAAAAAAAAAAAA [CACACA_site2646] | 9.76
57 | TTACAAAAAAAAAGGCGCGGATGGGGGCAATAGCAA [CACACA_negctrl_site238] | 10
58 | TTTTTCTTTCTATTTATCAATATTAAAAAAAAAAAA [CACACA_negctrl_site1629] | 8.41
59 | TTACTCATGAAAGATACACACATTCGTTATTTATAT [CACACA_site7517] | 9.54
60 | TATACATGTATATATTGTACATATGTTTTTTTTACA [XGTACX_site3300] | 9.32
61 | TTTTTTCAAATTTTCTTTTTTCTTTTGTTTTTTTTG [CACACA_negctrl_site380] | 9.19
62 | TTTTTATAATGATACATATATTATTTTATTCTTAAT [CACACA_negctrl_site124] | 9.01
63 | CACAAAATAAATTAAACACACAACATCATATATGTA [CACACA_site846] | 9.68
64 | GAAGAAGTTTAAAAAGCACACAAAAAAAAAAAAAAA [CACACA_site9088] | 8.84
65 | TAAATTATTATCCCCTCACACACAAAAATAAAAAGA [CACACA_site2886] | 9.93
66 | TATTTATAAACATACGCACACATTAATATATATATA [CACACA_site9314] | 9.51

Row | Sequence | gcPBM binding intensity (ln)
67 | AGATATTCTACTATGTGTACATATATATATATAATT [XGTACX_site5060] | 9.4
68 | ATTATTATTAATCTTGTGCACATATATTTTAATTAG | 9.33
69 | CTTGTAGATATAAAATGTACAAAAATAAATTGCACA [XGTACX_site4409] | 9.09
70 | ATTATATAGAATTGTACATGCGAATTGTATAACGAT [TGCATGCA_site125] | 9.4
71 | TATAAACGTATAATATGTACACACACATATATACAA [XGTACX_site1686] | 9.69
72 | AAAAAAAAAAAAAAAAATATATTTATGAAATAAAAA [TGCATGCA_negctrl_site262] | 8.93
73 | TATTTTTTTTTTTTTTTTTTTTTTATATATACATAT [CACACA_negctrl_site23] | 9.26
74 | TTTCTATTCCATTCAACACACAAAAATGTATGCTTT [CACACA_site1072] | 9.44
75 | AATGGATATTTCTTTATATATATCTTATTTGATTAT [XGTACX_negctrl_site284] | 9.24
76 | TATAAATATCTGAATTGTACAGGTGAAAAAAAAAAT [XGTACX_site1867] | 9.54
77 | TTTTTTATTATTATTATTTTTTATGTATAATAATGT [CACACA_negctrl_site631] | 9.2
78 | TTACTTTTTTTTTTATGTACTTATATTTTTTACACT [XGTACX_site3503] | 9.44
79 | TATGAATACATTTGTTGTACTTAAATTTCCTTTATT [XGTACX_site5374] | 9.21
80 | AAATAATTTATGCATACACACATATATATATATATA [CACACA_site4020] | 9.46
81 | TAGATATATAAATACACACACATACACAAAAAAAAA [CACACA_site7652] | 10
82 | AAATAAATACATAATACATGCATATTTAATATATAG [TGCATGCA_site135] | 9.4
83 | GTACAATCATATACTACATGCAGTTTTTTTTATTGA [TGCATGCA_site230] | 9.49
84 | AATTTTTTTTAATGATGTACTTTTTGAAAATAAACT [XGTACX_site4221] | 8.91
85 | TTTTCTTTTTCTTGTACACACATAATATGGATGAAA [CACACA_site808] | 9.41
86 | ATATATATATATATTTATTCATATATTTTTTGTCTT [TGCATGCA_negctrl_site58] | 9.17
87 | TAAAGAAACGCATCGACGCACACTACAAAATAAAAA [CACACA_site1348] | 9.26
88 | TTTTTATTTTTTCAGTGTACATTTAAATTATCTTAT [XGTACX_site3905] | 9.26
